Screen size: about 360,000 compounds; about 25,000 (6.9%) were called active. The inconclusive results got no clear call from the source; some entries with a clear call stand among them for comparison. Calls come from the whole dose curve; as a rule, active = well fitted inhibition curve with a large enough effect; inconclusive = small, poorly fitted or top-dose-only effect; inactive = flat fitted curve, though single readings scatter. Potencies of inconclusive entries are doubtful fits and often do not repeat.
Target: Luciferin 4-monooxygenase (Photinus pyralis) (UniProt P08659)
Assay: qHTS profiling assay for firefly luciferase inhibitor/activator using purifed enzyme and Km concentrations of substrates (counterscreen for miR-21 project); note: nearly all actives have a fitted effect of over 55% in size
Settings: purified FLuc, luminescence inhibition; series mostly up to 57.5 µM
Summary of the method: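 Purified P. pyralis luciferase (10nM final) with 10uM D-luciferin and 10uM ATP (Km levels) in 50mM Tris acetate pH 7.5, 10mM Mg acetate, 0.01% Tween-20, 0.05% BSA; qHTS 6-point titration, ~60 µM downward; luminescence read.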
Potency is the fitted concentration of half-maximal effect; tags give direction and shape of the fitted curve.

Sequence of UniProt P08659 (P08659 whole entry, looked up): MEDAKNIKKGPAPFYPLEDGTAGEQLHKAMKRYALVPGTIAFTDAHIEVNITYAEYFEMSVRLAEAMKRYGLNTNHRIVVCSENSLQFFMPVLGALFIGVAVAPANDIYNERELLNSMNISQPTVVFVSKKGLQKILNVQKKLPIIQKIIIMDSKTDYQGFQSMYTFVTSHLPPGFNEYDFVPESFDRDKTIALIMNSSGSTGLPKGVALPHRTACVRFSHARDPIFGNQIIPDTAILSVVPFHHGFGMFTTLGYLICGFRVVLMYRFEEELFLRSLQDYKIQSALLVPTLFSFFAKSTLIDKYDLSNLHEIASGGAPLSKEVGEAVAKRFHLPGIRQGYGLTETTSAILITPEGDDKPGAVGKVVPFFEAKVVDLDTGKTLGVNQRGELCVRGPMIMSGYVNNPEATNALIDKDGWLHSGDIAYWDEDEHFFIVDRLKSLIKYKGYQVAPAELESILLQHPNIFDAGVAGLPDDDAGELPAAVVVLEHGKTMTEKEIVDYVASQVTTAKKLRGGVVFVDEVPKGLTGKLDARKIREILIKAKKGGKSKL

| Structure (SMILES) | Potency |
| --- | --- |
| CCN(CC)S(=O)(=O)c1cccc(C(=O)N2CCCc3ccccc32)c1 | inconclusive: 37.9 µM [inhibitor, partial curve, poor fit] |
| CCN(CC)c1ccc(/C=C(\C#N)c2nc(-c3cccs3)c(NC(C)=O)s2)cc1 | inconclusive: 23.9 µM [inhibitor, partial curve, poor fit] |
| O=C(Nc1ccccc1C(=O)NCC1CCCO1)c1ccc(Cl)cc1Cl (configuration not stated) | inconclusive: 19 µM [inhibitor, single point] |
| Cc1nc2nc[nH]n2c(=O)c1NS(=O)(=O)c1ccc(Br)cc1 | inconclusive: 30.1 µM [inhibitor, partial curve, poor fit] |
| Cc1cccc(NC(=O)/C(C#N)=C/c2ccc(F)cc2)n1 | active: 5.36 µM |
| CC1CCCC(C)N1C(=O)CSc1nc2ccccc2s1 (configuration not stated) | inconclusive: 26.9 µM [inhibitor, single point] |
| COc1ccccc1CNC(=O)C1CCN(S(=O)(=O)Cc2ccccc2)CC1 | inactive |
| c1ccc2[nH]c(CSc3nccs3)nc2c1 | inconclusive: 26.9 µM [inhibitor, single point] |
| Fc1ccccc1-c1nc(-c2ccncc2)no1 | active: 8.49 µM |
| CCOC(=O)/C(=C\C=C1/Sc2ccccc2N1CC)C(C)=O | inconclusive: 21.3 µM [inhibitor, single point] |
| CN1CCc2c(sc3c2C(=O)NC(c2ccco2)N3)C1 (configuration not stated) | inactive |
| CCOC(=O)C1CCN(C(=O)COc2ccc(Br)cc2Br)CC1 | inconclusive: 37.9 µM [inhibitor, partial curve, poor fit] |
| COc1ccc(C(=O)Cc2cc3cccc(OC)c3oc2=O)cc1 | inconclusive: 21.3 µM [inhibitor, single point] |
| Cc1cc(N2CCOCC2)ccc1/C=C1\NC(=O)N(CC(=O)Nc2ccc(F)cc2)C1=O | inconclusive: 9.53 µM [inhibitor, partial curve, poor fit] |
| Cc1nc(CC(=O)Nc2nc(-c3ccccc3)cs2)cs1 | inconclusive: 26.9 µM [inhibitor, single point] |
| O=C(COC(=O)c1cc2ccccc2oc1=O)Nc1ccc(F)cc1F | active: 7.57 µM |
| C=CCOc1cccc(C(=O)N2CCCC(CCC(=O)NCc3ccccc3F)C2)c1 (configuration not stated) | inconclusive: 23.9 µM [inhibitor, partial curve, poor fit] |
| CC(OC(=O)CNC(=O)c1cccc(F)c1)C(=O)NC1CCCCC1C (configuration not stated) | inactive |
| Cc1ccc(/C=C/C(=O)c2c(C)cc(C)[nH]c2=O)cc1 | inactive |
| Cc1cccc(-c2nnc(SCC(=O)Nc3nc4c(s3)CCCC4)n2C)c1 | inconclusive: 23.9 µM [inhibitor, partial curve, poor fit] |
| Cc1cccc(NC(=O)c2cccc(C(F)(F)F)c2)c1 | inconclusive: 30.1 µM [inhibitor, single point] |
| O=C(Nc1ccc(Cl)cc1C(=O)O)c1ccc2c(c1)C(=O)N(Cc1ccco1)C2=O | inconclusive: 37.9 µM [inhibitor, single point] |
| Cc1ccc(-n2nnnc2SCC(=O)Nc2cccc(NC(=O)c3ccco3)c2)cc1C | inconclusive: 26.9 µM [inhibitor, single point] |
| COc1ccc(C(=O)CC(=O)C(=O)Nc2ccc(Cl)cc2)cc1 | inactive |

| Structure (SMILES) | Potency |
| --- | --- |
| CC(=O)Nc1cccc(NC(=O)CSc2nnc(NC(=O)C3CC3)s2)c1 | inconclusive: 23.9 µM [inhibitor, partial curve, poor fit] |
| CCCc1cc(=O)[nH]c(Nc2ccccc2O)n1 | inactive |
| Cc1cccc(NC(=O)NCc2ccc3c(c2)OCO3)c1 | inconclusive: 12 µM [inhibitor, partial curve] |
| Nc1cc(-c2ccc(OC(F)(F)F)cc2)nn1-c1ccc(Cl)c(Cl)c1 | inconclusive: 26.9 µM [inhibitor, single point] |
| COc1ccc(C2=NOC(C)(c3nnc(-c4ccc(F)cc4)o3)C2)cc1 (configuration not stated) | inactive |
| COc1ccc(/C=C(/NC(=O)c2ccco2)C(=O)Nc2ccc(C(=O)O)cc2)cc1 | inactive |
| O=C(NCCCN1CCOCC1)c1cc(-c2ccc(Br)cc2)on1 | inconclusive: 21.3 µM [inhibitor, partial curve, poor fit] |
| Cc1ccn2cc(-c3cccc(NC(=O)CCC(=O)O)c3)nc2c1 | active: 0.849 µM |
| COc1ccc(Cl)cc1N=C1NC(=O)CC(C(=O)Nc2ccccc2C(F)(F)F)S1 (configuration not stated) | inconclusive: 10.7 µM [inhibitor, partial curve, poor fit] |
| COc1ccc(OC)c(C2=NOC(C(=O)N3CCCc4ccccc43)C2)c1 (configuration not stated) | inconclusive: 37.9 µM [inhibitor, single point] |
| COc1cc(NS(=O)(=O)c2ccc(Nc3nc(-c4ccccn4)cs3)cc2)nc(OC)n1 | inconclusive: 16.9 µM [inhibitor, partial curve] |
| Cc1cc(NC(=O)c2cccs2)n(-c2nc3ccccc3[nH]2)n1 | inactive |
| CC1CCN(S(=O)(=O)c2ccc3c(ccc(=O)n3CC(=O)NCc3ccc(Cl)cc3)c2)CC1 | inactive |
| CCOc1ccc(Nc2nc3c(S(=O)(=O)c4ccc(CC)cc4)nnn3c3ccc(Cl)cc23)cc1 | inactive |
| Nc1[nH]n2c(=O)c3c(nc2c1N=Nc1ccc(Cl)cc1)CCCC3 | inconclusive: 37.9 µM [inhibitor, partial curve, poor fit] |
| COc1ccccc1N1CCN(C(=O)CN2C(=O)C3CCCCC3C2=O)CC1 (configuration not stated) | inconclusive: 37.9 µM [inhibitor, partial curve, poor fit] |
| CC1CCc2nc3ccccc3c(C(=O)OCC(=O)N3CCc4ccccc43)c2C1 (configuration not stated) | active: 4.78 µM |
| O=C(COC(=O)/C=C/c1ccc(C(F)(F)F)cc1)NC1CCCC1 | inactive |
| O=C(Nc1cccc(F)c1)c1ccccc1 | inconclusive: 16.9 µM [inhibitor, partial curve] |
| CCNC(=S)NNC(=O)c1cc(-c2cccc(OC)c2)nc2ccccc12 | active: 0.675 µM |
| Fc1ccccc1COc1ccc(/C=N/NC(=S)NCc2ccccc2)cc1 | inactive |
| C/C(Cn1cnc([N+](=O)[O-])n1)=N\NC(=O)c1ccccc1O | inconclusive: 23.9 µM [inhibitor, single point] |
| CCOC(=O)c1c(C)oc2c1cc(NS(=O)(=O)c1ccc(C)cc1)c1ccccc12 | inconclusive: 13.5 µM [inhibitor, partial curve] |
| O=S(=O)(Nc1nc2ccccc2nc1Cl)c1cccc(C(F)(F)F)c1 | inconclusive: 37.9 µM [inhibitor, single point] |

| Structure (SMILES) | Potency |
| --- | --- |
| COc1ccc(Nc2nc(N)nc(CSc3nccn3C)n2)cc1 | active: 21.3 µM |
| O=C(NC1CC(=O)N(c2ccc(Cl)cc2)C1)C1CCCC1 (configuration not stated) | inactive |
| O=C(NCc1cccnc1)C1CCN(c2ccc(S(=O)(=O)N3CCOCC3)cc2Cl)CC1 | inactive |
| CCC(COC(=O)Nc1ccccc1)NC(=O)OC(C)C (configuration not stated) | inconclusive: 26.9 µM [inhibitor, single point] |
| Cc1ccc(N2CCN(C(=O)c3c(C)oc4ncnc(N5CCCCC5)c34)CC2)c(C)c1 | inactive |
| Cc1cc(C(=O)OCC(=O)Nc2sc3c(c2C#N)CCC(C)C3)c2ccccc2n1 (configuration not stated) | inconclusive: 12 µM [inhibitor, partial curve, poor fit] |
| O=C(Nc1cccnc1N1CCOCC1)c1cc2ccccc2oc1=O | inconclusive: 23.9 µM [inhibitor, partial curve] |
| CC(C)Cc1ccc(C(=O)NCCOc2ccccc2)o1 | active: 0.953 µM |
| CCC(C)NC(=O)c1ccc2c(c1)nc1n2CCCCC1 (configuration not stated) | inconclusive: 26.9 µM [inhibitor, partial curve] |
| CCOc1ccc(NC(=O)CSc2nc3c([nH]c4ccccc43)c(=O)n2-c2cc(C)cc(C)c2)cc1 | inactive |
| NC(=O)c1c(NC(=O)C2CCCO2)sc2c1CCCCC2 (configuration not stated) | active: 16.9 µM |
| C=CCn1c(SCC(=O)Nc2ccc(F)cc2)nc2cc(C(=O)O)ccc2c1=O | inactive |
| Cc1ccc([N+](=O)[O-])cc1NC(=S)NC(=O)c1c(Cl)cnn1C | inactive |
| COc1ccccc1-c1nnc(SC(C)C(=O)O)n1-c1ccccc1 (configuration not stated) | inconclusive: 30.1 µM [inhibitor, partial curve, poor fit] |
| CCOC(=O)C(C)N1N=C(/C=C/c2ccc(OC)cc2)CCC1=O (configuration not stated) | inactive |
| O=C(Nc1ccccc1C(=O)NCC1CCCO1)c1ccc(Cl)cc1 (configuration not stated) | inconclusive: 37.9 µM [inhibitor, partial curve, poor fit] |
| Cc1cc(C)cc(NS(=O)(=O)c2ccc3[nH]c(=O)ccc3c2)c1 | inactive |
| CC(=O)c1ccc(NC(=O)CSc2nc(-c3ccccc3C)nc3c2c(=O)n(C)c(=O)n3C)cc1 | inactive |
| O=C(Nc1cccc2ccccc12)c1ccc(OC(=S)N2CCOCC2)cc1 | active: 10.7 µM |
| CCOC(=O)c1c(C)oc2nc(C)nc(N(C)Cc3ccccc3)c12 | inactive |
| CC(C)COc1cccc(C(=O)Nc2ccc(CN3CCOCC3)cc2)c1 | inconclusive: 37.9 µM [inhibitor, single point] |
| COc1cc(C(=O)OCc2cccc(OC)c2OC)ccc1OCC(=O)N1CCOCC1 | inconclusive: 23.9 µM [inhibitor, single point] |
| O=C(CSc1ncc(-c2ccc(Cl)cc2)[nH]1)Nc1ccccc1F | inconclusive: 37.9 µM [inhibitor, partial curve, poor fit] |
| O=C(Nc1ccccc1)Nc1cccc2ccccc12 | inconclusive: 23.9 µM [inhibitor, partial curve, poor fit] |
